Measured values reported in US6019970A, “Treatment of iodine deficiency diseases” (priority 1997, dated 2000).

Experiments:
premenstrual syndrome = assay: Example 7: Treatment of premenstrual syndrome with iodine; type: in vivo, human (women)
Method: Diatomic iodine has been used for the treatment of fibrocystic disease (see Example 1, above). […] These women varied in age from 30 years to 45 years, with an average of 38 years. The dose of elemental iodine employed was from about 0.07 mg. to about 0.09 mg. per kilogram body weight per day.
In a retrospective review, the presence of their synarome was confirmed by their family doctor, and all reported failure of control of the premenstrual syndrome with various medications. All these patients met the research diagnostic criteria for premenstrual syndrome as defined by Steiner, Haskett and Carroll. Five were classified as moderate, and five as severe.

fibrocystic disease [1] = assay: Recurrence of symptoms after dose reduction or stopping of iodine replacement therapy; type: in vivo, human; conditions: 10 cases reduced to a twice-weekly dose
Source text: Further, the half life of I2 in the human appears to be eight hours and therefore a daily dose is necessary.

fibrocystic disease [2] = assay: Complications and side effects of iodine replacement therapy; type: in vivo, human (women); conditions: during treatment cycle
Source text: These include acne, nausea, diarrhea, hair thinning, hyper- and hypothyroidism, skin rash and iodism. […] This pain occurred three to six weeks into the treatment regime and lasted from one to three weeks. The manifestation of pain seemed to coincide with a decrease in breast size and a sudden softening of the fibrosis.

ovarian cysts = assay: Example 8: Treatment of ovarian cysts with iodine (patient Number 647); type: in vivo, human
Source text: One patient, Number 647, exemplified four of the possible effective uses of elemental iodine, i.e., for the treatment of fibrocystic breast disease, premenstrual syndrome, endometriosis, and ovarian cysts. In each situation, as previously described, the elemental iodine is acting as an anti-estrogen to normalize the ovarian metabolism and estrogen response.
A synopsis of the case follows. […] After menarche, the patient had recurrent episodes of right and left lower quadrant abdominal pain. […] They restarted the iodine and within 10 days the abdominal pain had subsided. […] Approximately six months later, this patient was also diagnosed with endometriosis (presence of chocolate cysts) during a laparoscopy examination.
After a period of no abdominal pain, the patient stopped taking the elemental iodine for a period of approximately 2 years. They then returned to the private clinic, again having abdominal pain, and in addition, breast pain. They were at that time diagnosed as having fibrocystic disease in the upper half of each breast. The elemental iodine was again prescribed for their fibrocystic disease, and to continue to control their endonetriosis disease, which was diagnosed on their initial laparoscopy exam.
The patient continued on the elemental iodine, but was given an oral contraceptive as well.
The patient at all times was treated with 10 ml of an aqueous solution elemental iodine, twice daily, corresponding to a dose of approximately 6 milligrams per day.

fibrocystic dysplasia = assay: Clinical testing of aqueous (elemental) iodine in fibrocystic dysplasia, 142 women
[3] = tested on: breast neoplasia in severely iodine deficient Sprague-Dawley rats; assay: Example 3: Spontaneous breast cancers in rats; type: in vivo; conditions: 0.5 mg per 100 gm body weight, orally; iodine deficient diet and perchlorate
Source text: Since several different iodide modalities were used for evaluation without success, a preliminary study using iodine (diatomic, elemental) was begun by the inventors. This study employed Sprague-Dawley rats under severely iodine deficient conditions. The latter was obtained by using both dietary and perchlorate treatment together. While most of the histopathology obtained in the control rat group was noted to have only severe breast dysplasia, approximately 9% had evidence of neoplasia with cytological aberrations consistent with malignant alterations.

mammary gland neoplasia = assay: Example 5: Prophylactic treatment in rats on low iodine diet/perchlorate; type: in vivo, rat; conditions: simultaneous therapy, as in Example 3
Source text: Evidence for the diatomic iodine replacement thesis was obtained in a prophylactic treatment regime where simultaneous therapy with diatomic iodine as described in Example 3 above, was given to a limited number of prepared rats.

[4] = Side effects of iodine solution or suspension in patients; type: in vivo, human; conditions: pure elemental iodine solution without particulate iodine
Source text: Elemental iodine in a suspension form (i.e. containing micro and macro particles of iodine) has been used to treat thyroid conditions as taught by Polley in U.S. Pat. No. 4,384,960. However, such a suspension is an undesirable form of iodine. The iodine particles cause the suspension to be of unknown strength. […] The iodine particles are present in the Polley suspension due to the method of manufacture which comprises direct exposure of iodine pellets, crystals or dust to water through a porous container.
Both of these advantages are attributable to the lack of particulate iodine in the solution.

[5] = tested on: breast tissue from a female rat on an iodine deficient diet; assay: Iodine replacement therapy in iodine deficient rats, morphology of breast tissue; type: in vivo
Source text: Studies on rats have included iodine replacement therapy in animals made iodine deficient by a Remington iodine-free diet.
The first iodine product used in the reversal experiment was sodium iodide.
FIG. 1 is a photomicrograph of the breast tissue of a human.
Biological Trace Element Research, Volume 5, 1983, 399-412. The material disclosed in these articles is incorporated herein by reference.
This deficiency can be obtained either through the use of an iodine deficient diet and/or through perchlorate treatment.

fibrocystic disease [6] = tested on: fibrocystic disease
[7] = approximately 2 years after re-treatment

II [elemental iodine, diatomic iodine]
follow up of premenstrual syndrome (premenstrual syndrome; subsequent follow up): continuation of control of the syndrome | return of symptoms after stopping (premenstrual syndrome; three patients stopped medication): within one menstrual cycle had a return of symptoms | recurrence of symptoms (fibrocystic disease [1]): within two weeks had a recurrence of symptoms | increase of pain (fibrocystic disease [2]; de novo group): 18.5% | increase of pain (fibrocystic disease [2]; transfer group): 1.3% | abdominal pain (ovarian cysts; approximately 6 mg per day, approximately 3 months): free of abdominal pain | abdomen status (ovarian cysts; [7]): asymptomatic in regard to their abdomen | breast status (ovarian cysts; [7]): their breasts were asymptomatic and normal on examination | ovaries on ultrasound (ovarian cysts; approximately 6 months after re-treatment): showed the ovaries to be normal | cyst on left ovary (ultrasound) (ovarian cysts; approximately 10 months after initial treatment): the cyst on their left ovary had disappeared | abdominal pain after restarting (ovarian cysts; restarted): within 10 days the abdominal pain had subsided | abdominal pain after stopping (ovarian cysts; stopped for 1 week): on the eighth day, their abdominal pain returned, severe enough to incapacitate them | recurrence of abdominal pain on stopping iodine (ovarian cysts; with an oral contraceptive): recurrent abdominal pain within three months | abdominal pain (ovarian cysts; with an oral contraceptive, 1 year later): free of abdominal pain | patients with control of pain, cysts and fibrosis, decrease in breast size (fibrocystic dysplasia; de novo patients, 4 to 16 months): 90 % of patients | patients with dramatic reduction in breast size, fibrosis and pain (fibrocystic dysplasia; oral aqueous iodine): 90 % of patients | neoplastic changes [3]: no evidence of persisting neoplastic changes in any of the rats | neoplasia in mammary glands (mammary gland neoplasia): no neoplasia secondary to this low iodine diet/perchlorate treatment | side effects [4]: reduces the unwanted side effects of nausea, vomiting and diarrhea | reversal of pathological changes / tissue morphology of rat breast after iodine replacement [5]: reversal of tissue morphology to near normal with the return of normal adipose tissue components, subsidence of the epithelial hyperplasia and cyst spaces, and most notably, subsidence of the fibrosis | reversal of pathological changes / tissue morphology of rat breast after iodine replacement ([5]; listed as aqueous iodine): complete reversal of the fibrocystic dysplasia, including the control of fibrosis and thus a return to normal | reversal of pathological changes / tissue morphology of rat breast after iodine replacement ([5]; listed as aqueous or diatomic iodine): the histopathology in the breast becomes normal | reversal of pathological changes / tissue morphology of rat breast after iodine replacement ([5]; listed as iodine): reversed breast dysplasia | patients with reduction in breast size (fibrocystic disease [6]; de novo group): 76 % of patients | complete subjective relief of breast pain and clinical return to normal (fibrocystic disease [6]; de novo group, 3-6 mg daily, fourth month): 72 % of patients | retaining a small residual plaque of fibrosis (fibrocystic disease [6]; de novo group, fourth month): 26 % of patients | most effective dose to control all symptoms of fibrocystic disease (fibrocystic disease [6]; elemental iodine in aqueous solution): 3-6 milligrams per day | reduction in breast size (fibrocystic disease [6]; transfer group): as significant as the de novo group | loss of residual breast discomfort and complete resolution of fibrosis; return to complete normalcy (class 1) (fibrocystic disease [6]; transfer group, after transfer to elemental iodine, four months evaluation): 74 % of patients and 73.7 % of patients | patients at the 16-month evaluation (complete normalcy) (fibrocystic disease [6]; transfer group, 16-month evaluation): over 90 % of patients

“And” between values parts separate entries of the source, which are not always exact repeats. Identical values can stand only once. Like-named read-outs stand apart in the source and are kept apart here.
